The results in this text go back to a collection of fitness landscapes (doi:10.1126/science.1257360).

The list shows a part of the results.

B1: PhoQ; a variant is named by its letters at X, in order, P23837 (parent)
chain: MKKLLRLFFPLSLRVRFLLATAAVVLVLSLAYGMVALIGYSVSFDKTTFRLLRGESNLFYTLAKWENNKLHVELPENIDKQSPTMTLIYDENGQLLWAQRDVPWLMKMIQPDWLKSNGFHEIEADVNDTSLLLSGDHSIQQQLQEVREDDDDAEMTHSVAVNVYPATSRMPKLTIVVVDTIPVELKSSYMVWSWFIYVLSANLLLVIPLLWVAAWWSLRPIEALAKEVRELEEHNRELLNPATTRELTSLVRNLNRLLKSERERYDKYRTTLTDLTHSLKTPLXXLQXXLRSLRSEKMSVSDAEPVMLEQISRISQQIGYYLHRASMRGGTLLSRELHPVAPLLDNLTSALNKVYQRKGVNISLDISPEISFVGEQNDFVEVMGNVLDNACKYCLEFVEISARQTDEHLYIVVEDDGPGIPLSKREVIFDRGQRVDTLRPGQGVGLAVAREITEQYEGKIVAGESMLGGARMEVIFGRQHSAPKDE

In the assay the parent is B1. As to the kind of experiment: enrichment ratio after two sorts for PhoP signalling (ratio (wild type AVST 3.29)); higher = more functional. As to conditions: with PhoP (E. coli).
In the case of AVNR, the enrichment ratio was ≤ 0.25. FEWA: the enrichment ratio was ≤ 0.25. For the variant VTRC, the enrichment ratio was ≤ 0.25. IDRQ: the enrichment ratio was ≤ 0.25. Regarding PRIY, the enrichment ratio is ≤ 0.25. Consider MIIN, for which the enrichment ratio is ≤ 0.25. As to GYLL, the enrichment ratio is ≤ 0.25. For ATIY the value was 10.1. On to LQME, for which the enrichment ratio is ≤ 0.25. For the variant AKMG, the enrichment ratio was found to be 18.6. Consider DCWM, for which the enrichment ratio is ≤ 0.25. The result for RNMY reads ≤ 0.25. Consider MSWL, for which the enrichment ratio was determined as 14.4. Take YFWN: the enrichment ratio is ≤ 0.25. For STQT, the enrichment ratio was ≤ 0.25. PCYE: the enrichment ratio was ≤ 0.25. The result for LYRE reads ≤ 0.25. For REIF the value was ≤ 0.25; for RIWY, ≤ 0.25.

For the variant MPMR, the enrichment ratio is ≤ 0.25. For the variant MGFV, the enrichment ratio was 4.89.

Turning to YKRW, the enrichment ratio is ≤ 0.25.

For PKGP, the enrichment ratio worked out at 4.39.

GRGA: the enrichment ratio is ≤ 0.25. Regarding TDWP, the enrichment ratio was ≤ 0.25.

As to HHMV, the enrichment ratio was ≤ 0.25.

Regarding PQMI, the enrichment ratio is ≤ 0.25. For YEQV, the enrichment ratio was ≤ 0.25.

Turning to KNTR, the enrichment ratio was ≤ 0.25. GRGN: the enrichment ratio was ≤ 0.25. On to LTTF, for which the enrichment ratio is ≤ 0.25. Take KNSP: the enrichment ratio was ≤ 0.25. On to LPQL, for which the enrichment ratio is ≤ 0.25. For VLQY the value was ≤ 0.25; for KKHL, ≤ 0.25. On to VHKA, for which the enrichment ratio is ≤ 0.25.

Turning to IWFP, the enrichment ratio is ≤ 0.25. Regarding SLQK, the enrichment ratio is ≤ 0.25. For KVTY the value was ≤ 0.25; for TALY, 6.91. Take FANR: the enrichment ratio was ≤ 0.25. The result for ADPP reads ≤ 0.25; that for IGAC, ≤ 0.25; that for QDCV, ≤ 0.25.

As to YCMS, the enrichment ratio was ≤ 0.25. For NGIC the value was ≤ 0.25; for ASFP, ≤ 0.25; for DCYW, ≤ 0.25. Take MEYR: the enrichment ratio is ≤ 0.25.

VNWS: the enrichment ratio was ≤ 0.25. On to WWYP, for which the enrichment ratio is ≤ 0.25. Regarding VQQM, the enrichment ratio is ≤ 0.25. For GPDW the value was ≤ 0.25; for PWVK, ≤ 0.25; for PFYE, ≤ 0.25.

Take YTYN: the enrichment ratio was ≤ 0.25. For SAWI, the enrichment ratio is ≤ 0.25. Regarding FSGH, the enrichment ratio is ≤ 0.25.

For the variant YYGQ, the enrichment ratio is ≤ 0.25.

As to SQVT, the enrichment ratio was found to be 5.85. Consider FMGM, for which the enrichment ratio is ≤ 0.25. On to DYFL, for which the enrichment ratio was ≤ 0.25. STND: the enrichment ratio is ≤ 0.25.

Consider SLLP, for which the enrichment ratio was ≤ 0.25.

Take VYNR: the enrichment ratio is ≤ 0.25.

As to TVYI, the enrichment ratio was 0.878. The result for STRR reads ≤ 0.25; that for RHYH, ≤ 0.25; that for IWYH, ≤ 0.25. On to HWPG, for which the enrichment ratio stood at 5.95. For the variant RESD, the enrichment ratio was ≤ 0.25. For the variant LQKV, the enrichment ratio is ≤ 0.25. TKDG: the enrichment ratio was ≤ 0.25. As to AHAH, the enrichment ratio is ≤ 0.25. With DCKG, the enrichment ratio was ≤ 0.25. Consider VDFH, for which the enrichment ratio was ≤ 0.25.

For the variant PTRR, the enrichment ratio was ≤ 0.25. With TGTM, the enrichment ratio worked out at 15. Consider TFGK, for which the enrichment ratio was ≤ 0.25. In the case of WERA, the enrichment ratio was ≤ 0.25.

Take QPVK: the enrichment ratio was ≤ 0.25.

AFYS: the enrichment ratio was ≤ 0.25. IGLK: the enrichment ratio is ≤ 0.25. Regarding MPDP, the enrichment ratio is ≤ 0.25.
